Measured values published in PubChem BioAssay AID602292 (National Center for Advancing Translational Sciences (NCATS), 2012).
In all, about 1,300 compounds went through this assay and about 380 (29%) were called active. This list was built around the results that the source calls inconclusive (neither active nor inactive); the mix of calls is not that of the screen. Calls come from the whole dose curve; as a rule, active = well fitted inhibition curve with a large enough effect; inconclusive = small, poorly fitted or top-dose-only effect; inactive = flat fitted curve, though single readings scatter. Potencies of inconclusive entries are left out as doubtful fits.
% is set by controls: 0 for no effect and ±100 for the full control effect; potency is the fitted concentration of half-maximal effect; tags give direction and shape of the fitted curve.
Note: nearly all actives have a fitted effect of over 80% in size.
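Throughout, for activity change, negative = inhibition: cells stimulated with TSH at EC80 of 4 nM during compound exposure; cAMP by competitive HTRF where cellular cAMP lowers the 665 nm FRET signal.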

The molecules below were run against Thyrotropin receptor (Homo sapiens) (UniProt P16473) (assay: qHTS for antagonists of the Thyroid Stimulation Hormone Receptor: Hit Validation in Primary Screen). Details: TSHR-expressing cells, cAMP antagonist mode; series mostly up to 58 µM; activity change, negative = inhibition: at the top concentration.
Chain of UniProt P16473 (P16473 whole entry, looked up): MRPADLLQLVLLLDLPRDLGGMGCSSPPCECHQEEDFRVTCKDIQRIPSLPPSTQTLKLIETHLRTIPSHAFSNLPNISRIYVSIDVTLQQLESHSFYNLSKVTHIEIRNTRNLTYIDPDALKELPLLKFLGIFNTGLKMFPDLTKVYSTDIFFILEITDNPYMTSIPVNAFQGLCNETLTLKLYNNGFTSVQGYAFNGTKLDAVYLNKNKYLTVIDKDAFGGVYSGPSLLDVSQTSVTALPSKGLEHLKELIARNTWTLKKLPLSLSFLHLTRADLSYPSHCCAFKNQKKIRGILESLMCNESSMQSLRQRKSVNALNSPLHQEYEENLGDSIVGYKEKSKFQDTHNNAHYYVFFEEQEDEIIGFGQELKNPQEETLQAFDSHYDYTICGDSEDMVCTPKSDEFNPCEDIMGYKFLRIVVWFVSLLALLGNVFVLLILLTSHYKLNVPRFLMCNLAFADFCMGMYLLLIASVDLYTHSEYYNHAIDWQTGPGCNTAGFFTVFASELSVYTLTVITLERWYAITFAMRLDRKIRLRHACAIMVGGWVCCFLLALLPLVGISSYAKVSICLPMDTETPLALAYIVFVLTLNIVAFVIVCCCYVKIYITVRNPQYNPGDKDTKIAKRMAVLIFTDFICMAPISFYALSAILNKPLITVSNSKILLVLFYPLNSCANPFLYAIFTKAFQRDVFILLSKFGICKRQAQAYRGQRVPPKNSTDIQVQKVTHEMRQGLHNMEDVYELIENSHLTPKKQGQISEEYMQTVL
How it was run: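 Competitive HTRF detected cAMP in lysates of TSHR cells, read 30 minutes after antibody and d2 addition at room temperature. Before lysis, cells had 2 hours at 37 deg C with compound plus EC80 TSH, 4nM final.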
In the case of `CC(C)(C)n1ncc2c(=O)n(Cc3ccccc3Br)cnc21`, the Potency is reported as inconclusive [inhibitor, partial curve].
With `CN(C)S(=O)(=O)c1cccc(-c2nnc(SCc3ccc4c(c3)OCCO4)o2)c1` the Potency was inconclusive [inhibitor, partial curve, poor fit].
For `CCN(C(=O)CSc1nnc(CNc2cccc(OC)c2)n1C1CCCCC1)C1CCS(=O)(=O)C1` (stereo not given), the “activity change, negative = inhibition” value was inactive: -3.31%.
`Cc1ccc(OCCSc2ncccn2)c(C)c1` was tested, and the Potency was inconclusive [inhibitor, partial curve, poor fit].
For `CCOC(=O)c1cc(C(=O)Nc2sc3c(c2C#N)CCCC3)nn1C`, the Potency was inconclusive [inhibitor, partial curve, poor fit].
In the case of `CC(C)c1ccc(OCC(=O)Nc2cccc3c2CCCC3)cc1`, the Potency is reported as inconclusive [inhibitor, partial curve, poor fit].
In the case of `O=C(COc1ccc(Cl)cc1)NCc1nnc(SCC(=O)NC2CCCCC2)o1`, the “activity change, negative = inhibition” value is reported as inactive: -2.3%.
With `N#CC1=C(C2CC2)CC(c2ccccc2)C(C#N)=C1N` (stereo not given) the “activity change, negative = inhibition” value was inactive: -3.77%.
`CCCCCC/C(C)=C1/SC(=S)NC1=O` was tested, and the Potency was active: 30.1 µM.
`O=C(NCCc1ccccc1)c1cc2ccccc2oc1=O` was tested, and the “activity change, negative = inhibition” value was inactive: -2.82%.
With `COc1ccccc1C(=O)Nc1nnc(SCC(=O)NC2CCCC2)s1` the “activity change, negative = inhibition” value was inactive: -5.73%.
In the case of `Cc1cc(OCc2cc(C(=O)N(C)C(C)c3ccccn3)no2)cc(C)c1Cl` (stereo not given), the Potency is reported as inconclusive [inhibitor, partial curve, poor fit].
For `Cc1ccc(C(=O)c2c(NC(=O)c3ccccc3)sc(C)c2C)cc1`, the Potency was inconclusive [inhibitor, partial curve, poor fit].
`O=C(Nc1nc(-c2ccc(S(=O)(=O)N3CCCCCC3)cc2)cs1)c1ccccc1` was tested, and the Potency was inconclusive [inhibitor, partial curve, poor fit].
In the case of `COCC(C)NC(=O)C1c2ccccc2Oc2ccccc21` (stereo not given), the “activity change, negative = inhibition” value is reported as inactive: -5.99%.
With `O=C(Nc1cccc(Cl)c1)Nc1nnc(-c2ccncc2)s1` the Potency was inconclusive [inhibitor, partial curve, poor fit].
In the case of `O=C1c2ccccc2C(=O)N1CCCCSc1nnnn1-c1ccccc1`, the Potency is reported as inconclusive [inhibitor, partial curve, poor fit].
In the case of `COCCCn1c(=O)c2sccc2n(Cc2cccc(C)c2)c1=O`, the “activity change, negative = inhibition” value is reported as inactive: -8.56%.
In the case of `O=c1cc(C(F)(F)F)[nH]c2ccc(OC(F)(F)F)cc12`, the Potency is reported as active: 9.53 µM.
With `O=c1c(Sc2ccccc2)c(C(F)(F)F)[nH]n1-c1ccccc1` the Potency was inconclusive [inhibitor, partial curve].
In the case of `O=C(O)c1ccccc1NS(=O)(=O)c1cccc(-n2sc3ccccc3c2=O)c1`, the Potency is reported as active: 23.9 µM.
For `Cc1ccc(NC(=O)c2ccccc2NS(=O)(=O)c2ccc(F)cc2)cc1S(=O)(=O)N1CCCCC1`, the Potency was active: 3.79 µM.
With `Cc1cccc(CSc2nc3ccccc3c(=O)n2C)c1` the Potency was inconclusive [inhibitor, partial curve].
For `COc1ccc(N(CC(=O)Nc2cc(Cl)ccc2OC)S(=O)(=O)c2c(C)noc2C)cc1`, the “activity change, negative = inhibition” value was inactive: -11.3%.
With `CC1CCCN(S(=O)(=O)c2csc(C(N)=O)c2)C1` (stereo not given) the “activity change, negative = inhibition” value was inactive: -8.21%.
In the case of `COC(=O)c1cc(=O)n(-c2c(Cl)cc(C(F)(F)F)cc2Cl)[nH]1`, the “activity change, negative = inhibition” value is reported as inactive: -7.03%.
`O=C(c1ccco1)N1CCN(Cc2csc(-c3ccccc3Cl)n2)CC1` was tested, and the Potency was inconclusive [inhibitor, partial curve, poor fit].
In the case of `CC(=O)N1CCc2cc(Br)cc(S(=O)(=O)N3CCC(C(=O)O)CC3)c21`, the “activity change, negative = inhibition” value is reported as inactive: -11.2%.
With `Clc1ccccc1CN(Cc1ccccc1)c1ncnc2nc[nH]c12` the Potency was active: 26.9 µM.
`CCCCCCCC[n+]1cccc2c3ccccc3ccc21` was tested, and the Potency was inconclusive [inhibitor, partial curve].
With `CCCCCCCCCC[n+]1cccc2c3ccccc3ccc21` the Potency was inconclusive [inhibitor, partial curve, poor fit].
For `Cc1ccc(CCNC(=O)C2CCN(S(=O)(=O)c3cccc4cccnc34)CC2)cc1`, the “activity change, negative = inhibition” value was inactive: -12.1%.
For `CC(NC(=O)c1cccs1)C(S)c1ccccc1` (stereo not given), the Potency was inconclusive [inhibitor, partial curve, poor fit].
For `CC1=CCC2C(=O)N(c3ccc(C(=O)Nc4ccccc4Cl)cc3)C(=O)C2C1` (stereo not given), the “activity change, negative = inhibition” value was inactive: -3.11%.
`Cc1cccc(C)c1NC(=O)N1CCC(C(=O)c2ccc(F)cc2)CC1` was tested, and the “activity change, negative = inhibition” value was inactive: -1.04%.
In the case of `O=C(Nc1ccc2c(c1)CCC2)c1cc(S(=O)(=O)Nc2ccc(F)cc2)c(Cl)cc1Cl`, the Potency is reported as inconclusive [inhibitor, partial curve].
With `CCOC(=O)C1C(c2cc(OC)c(OC)c(OC)c2)NC(=S)NC1(O)C(F)(F)F` (stereo not given) the “activity change, negative = inhibition” value was inactive: -3.72%.
In the case of `Cc1ccc(/C=N/n2c(COc3ccccc3)n[nH]c2=S)s1`, the “activity change, negative = inhibition” value is reported as inactive: -4.26%.
For `O=C(Nc1ccccc1C(=O)N1CCN(c2cccc(Cl)c2)CC1)C1=CSCCO1`, the “activity change, negative = inhibition” value was inactive: -14.7%.
For `COC(=O)c1ccc(NC(=O)c2ccccc2)o1`, the “activity change, negative = inhibition” value was inactive: -9.82%.
`O=C(CCc1ccccc1)N1CCN(Cc2ccc(F)cc2Cl)CC1` was tested, and the “activity change, negative = inhibition” value was inactive: -12.8%.
With `COc1ccc(N2CCN(C(=O)[C@H](C)NC(=O)c3ccccc3Cl)CC2)cc1` the “activity change, negative = inhibition” value was inactive: -4.81%.
In the case of `CN(C)S(=O)(=O)c1ccc(N2CCN(S(=O)(=O)c3ccc(F)cc3)CC2)c(Cl)c1`, the Potency is reported as inconclusive [inhibitor, partial curve, poor fit].
In the case of `O=C(OCn1ncc(Cl)c(Cl)c1=O)c1ccccc1Cl`, the Potency is reported as inconclusive [inhibitor, partial curve].
With `CN(c1cccc(Cl)c1)S(=O)(=O)c1cccc(C(=O)NCc2ccncc2)c1` the Potency was inconclusive [inhibitor, partial curve, poor fit].
`Cc1cc(C)cc(N=C2NC(=O)CS2)c1` was tested, and the “activity change, negative = inhibition” value was inactive: -5.01%.
For `Cc1ccc(-n2c(Cl)c(Cl)nc(Cl)c2=O)cc1`, the Potency was active: 26.9 µM.
In the case of `Cc1ccc(S(=O)(=O)N2CCN(C(=O)CCn3cncn3)CC2)cc1`, the “activity change, negative = inhibition” value is reported as inactive: -0.576%.
In the case of `Cc1ccc(C(=O)Nc2nc(-c3ccc(F)cc3)cs2)o1`, the Potency is reported as inconclusive [inhibitor, partial curve].
`O=C(COc1ccc(Cl)cc1Cl)Nc1ccc(C(=O)Nc2ccccc2C(=O)O)cc1` was tested, and the Potency was active: 23.9 µM.
`Cc1ccc(CN2C(=O)c3ccccc3Sc3ccc(C(=O)NCCN4CCOCC4)cc32)cc1` was tested, and the “activity change, negative = inhibition” value was inactive: -8.21%.
For `CCc1cc(CNC(=O)CC2C(=O)NCCN2Cc2ccc(-c3ccccc3)cc2)on1` (stereo not given), the “activity change, negative = inhibition” value was inactive: -10.3%.
For `Cc1noc(C)c1COc1ccccc1C(=O)N(C)Cc1ccc(C(C)(C)C)cc1`, the Potency was active: 30.1 µM.
For `Cc1n[nH]c(C)c1S(=O)(=O)N1CCCC(C(=O)N2CCN(c3ccc(Cl)cc3)CC2)C1` (stereo not given), the Potency was inconclusive [inhibitor, partial curve].
`Brc1cc2c(cc1/C=N/Nc1nc(N3CCOCC3)nc(N3CCOCC3)n1)OCO2` was tested, and the Potency was inconclusive [inhibitor, partial curve, poor fit].
For `Cc1ncsc1CCOC(=O)C1C2CC3CC(C2)CC1C3` (stereo not given), the Potency was active: 30.1 µM.
`CC(=O)Oc1c(C)cc(Cl)cc1C(=O)Nc1ccc([N+](=O)[O-])cc1Cl` was tested, and the Potency was active: 0.478 µM.
For `CCc1ccc(N/C(SCc2cccc(F)c2)=C(/C#N)C(=O)NCc2ccco2)cc1`, the “activity change, negative = inhibition” value was inactive: -5.33%.
`O=C(OCn1ncc(Cl)c(Cl)c1=O)c1cccc(C(F)(F)F)c1` was tested, and the Potency was inconclusive [inhibitor, partial curve, poor fit].
For `COc1cccc(C(=O)/C=C/Nc2ccc(S(=O)(=O)Nc3cccc(C(C)=O)c3)cc2)c1`, the Potency was inconclusive [inhibitor, partial curve].
In the case of `COc1ccc(-c2cc(-c3ccccc3)c(C#N)c(S(C)=O)n2)cc1` (stereo not given), the Potency is reported as inconclusive [inhibitor, partial curve, poor fit].
With `CC(=O)N1c2ccc(S(=O)(=O)NCCC(=O)Nc3cccc(Cl)c3)cc2CC1C` (stereo not given) the “activity change, negative = inhibition” value was inactive: -2.02%.
With `N#Cc1c(SCc2c(Cl)cccc2Cl)nc(N)[nH]c1=S` the Potency was active: 19 µM.
`CC1CCN(c2ccccc2NC(=O)c2cc([N+](=O)[O-])ccc2N2CCOCC2)CC1` was tested, and the Potency was inconclusive [inhibitor, partial curve].
`CSc1cccc(NC(=O)C2CCCN(S(=O)(=O)c3ccc(F)cc3)C2)c1` (stereo not given) was tested, and the Potency was inconclusive [inhibitor, partial curve].
For `C[C@@H](NC(=O)[C@@H]1Cc2ccccc2CN1)C(=O)NC1CCCCC1`, the “activity change, negative = inhibition” value was inactive: -1.93%.
`CCN(CC)S(=O)(=O)c1cccc(C(=O)Nc2nc3cc4c(cc3s2)OCCO4)c1` was tested, and the Potency was active: 21.3 µM.
In the case of `Cc1cc(OCC(=O)Nc2cccc(S(=O)(=O)N3CCCC3)c2)ccc1Cl`, the Potency is reported as inconclusive [inhibitor, partial curve].
For `COc1ccc(-c2csc(/C(C#N)=C\c3ccc(O)c([N+](=O)[O-])c3)n2)cc1OC`, the Potency was active: 1.9 µM.
For `CSc1cccc(NC(=O)CN2C(=O)COc3ccc(S(=O)(=O)N4CCOCC4)cc32)c1`, the “activity change, negative = inhibition” value was inactive: -4.44%.
`C#CCn1c(=NC(=O)c2cccs2)sc2cccc(OC)c21` was tested, and the Potency was inconclusive [inhibitor, partial curve].
In the case of `COc1ccc(OC)c2c1C(=O)C(Cl)=C(Cl)C2=O`, the Potency is reported as active: 33.8 µM.
In the case of `Fc1ccc2[nH]c3c(N4CCN(c5ccccc5)CC4)ncnc3c2c1`, the Potency is reported as active: 30.1 µM.
With `CCN(CC)S(=O)(=O)c1cccc(NC(=O)CNc2cccc(S(=O)(=O)N3CCOCC3)c2)c1` the Potency was inconclusive [inhibitor, partial curve].
In the case of `O=C(COc1cccc2ccccc12)Nc1ccc(Cl)cc1C(=O)O`, the Potency is reported as active: 4.78 µM.
